No constants are given. Whether binding was seen depends on the method and setting. Binding seen in cells or lysates may run through a third protein. Some binding calls cover weakened binding; strength is not graded here.
B1: Nup107 (protein, UniProt P57740-1 1-925)
chain: MDRSGFGEISSPVIREAEVTRTARKQSAQKRVLLQASQDENFGNTTPRNQVIPRTPSSFRQPFTPTSRSLLRQPDISCILGTGGKSPRLTQSSGFFGNLSMVTNLDDSNWAAAFSSQRSGLFTNTEPHSITEDVTISAVMLREDDPGEAASMSMFSDFLQSFLKHSSSTVFDLVEEYENICGSQVNILSKIVSRATPGLQKFSKTASMLWLLQQEMVTWRLLASLYRDRIQSALEEESVFAVTAVNASEKTVVEALFQRDSLVRQSQLVVDWLESIAKDEIGEFSDNIEFYAKSVYWENTLHTLKQRQLTSYVGSVRPLVTELDPDAPIRQKMPLDDLDREDEVRLLKYLFTLIRAGMTEEAQRLCKRCGQAWRAATLEGWKLYHDPNVNGGTELEPVEGNPYRRIWKISCWRMAEDELFNRYERAIYAALSGNLKQLLPVCDTWEDTVWAYFRVMVDSLVEQEIQTSVATLDETEELPREYLGANWTLEKVFEELQATDKKRVLEENQEHYHIVQKFLILGDIDGLMDEFSKWLSKSRNNLPGHLLRFMTHLILFFRTLGLQTKEEVSIEVLKTYIQLLIREKHTNLIAFYTCHLPQDLAVAQYALFLESVTEFEQRHHCLELAKEADLDVATITKTVVENIRKKDNGEFSHHDLAPALDTGTTEEDRLKIDVIDWLVFDPAQRAEALKQGNAIMRKFLASKKHEAAKEVFVKIPQDSIAEIYNQCEEQGMESPLPAEDDNAIREHLCIRAYLEAHETFNEWFKHMNSVPQKPALIPQPTFTEKVAHEHKEKKYEMDFGIWKGHLDALTADVKEKMYNVLLFVDGGWMVDVREDAKEDHERTHQMVLLRKLCLPMLCFLLHTILHSTGQYQECLQLADMVSSERHKLYLVFSKEELRKLLQKLRESSLMLLDQGLDPLGYEIQL
B2: Nup155 (protein, UniProt O75694-1 1-1391)
chain: MPSSLLGAAMPASTSAAALQEALENAGRLIDRQLQEDRMYPDLSELLMVSAPNNPTVSGMSDMDYPLQGPGLLSVPNLPEISSIRRVPLPPELVEQFGHMQCNCMMGVFPPISRAWLTIDSDIFMWNYEDGGDLAYFDGLSETILAVGLVKPKAGIFQPHVRHLLVLATPVDIVILGLSYANLQTGSGVLNDSLSGGMQLLPDPLYSLPTDNTYLLTITSTDNGRIFLAGKDGCLYEVAYQAEAGWFSQRCRKINHSKSSLSFLVPSLLQFTFSEDDPILQIAIDNSRNILYTRSEKGVIQVYDLGQDGQGMSRVASVSQNAIVSAAGNIARTIDRSVFKPIVQIAVIENSESLDCQLLAVTHAGVRLYFSTCPFRQPLARPNTLTLVHVRLPPGFSASSTVEKPSKVHRALYSKGILLMAASENEDNDILWCVNHDTFPFQKPMMETQMTAGVDGHSWALSAIDELKVDKIITPLNKDHIPITDSPVVVQQHMLPPKKFVLLSAQGSLMFHKLRPVDQLRHLLVSNVGGDGEEIERFFKLHQEDQACATCLILACSTAACDREVSAWATRAFFRYGGEAQMRFPTTLPPPSNVGPILGSPVYSSSPVPSGSPYPNPSFLGTPSHGIQPPAMSTPVCALGNPATQATNMSCVTGPEIVYSGKHNGICIYFSRIMGNIWDASLVVERIFKSGNREITAIESSVPCQLLESVLQELKGLQEFLDRNSQFAGGPLGNPNTTAKVQQRLIGFMRPENGNPQQMQQELQRKFHEAQLSEKISLQAIQQLVRKSYQALALWKLLCEHQFTIIVAELQKELQEQLKITTFKDLVIRDKELTGALIASLINCYIRDNAAVDGISLHLQDICPLLYSTDDAICSKANELLQRSRQVQNKTEKERMLRESLKEYQKISNQVDLSNVCAQYRQVRFYEGVVELSLTAAEKKDPQGLGLHFYKHGEPEEDIVGLQAFQERLNSYKCITDTLQELVNQSKAAPQSPSVPKKPGPPVLSSDPNMLSNEEAGHHFEQMLKLSQRSKDELFSIALYNWLIQVDLADKLLQVASPFLEPHLVRMAKVDQNRVRYMDLLWRYYEKNRSFSNAARVLSRLADMHSTEISLQQRLEYIARAILSAKSSTAISSIAADGEFLHELEEKMEVARIQLQIQETLQRQYSHHSSVQDAVSQLDSELMDITKLYGEFADPFKLAECKLAIIHCAGYSDPILVQTLWQDIIEKELSDSVTLSSSDRMHALSLKIVLLGKIYAGTPRFFPLDFIVQFLEQQVCTLNWDVGFVIQTMNEIGVPLPRLLEVYDQLFKSRDPFWNRMKKPLHLLDCIHVLLIRYVENPSQVLNCERRRFTNLCLDAVCGYLVELQSMSSSVAVQAITGNFKSLQAKLERLH
B3: Kap β3/IPO5 (protein, UniProt O00410-1 1-1097)
chain: MAAAAAEQQQFYLLLGNLLSPDNVVRKQAEETYENIPGQSKITFLLQAIRNTTAAEEARQMAAVLLRRLLSSAFDEVYPALPSDVQTAIKSELLMIIQMETQSSMRKKVCDIAAELARNLIDEDGNNQWPEGLKFLFDSVSSQNVGLREAALHIFWNFPGIFGNQQQHYLDVIKRMLVQCMQDQEHPSIRTLSARATAAFILANEHNVALFKHFADLLPGFLQAVNDSCYQNDDSVLKSLVEIADTVPKYLRPHLEATLQLSLKLCGDTSLNNMQRQLALEVIVTLSETAAAMLRKHTNIVAQTIPQMLAMMVDLEEDEDWANADELEDDDFDSNAVAGESALDRMACGLGGKLVLPMIKEHIMQMLQNPDWKYRHAGLMALSAIGEGCHQQMEGILNEIVNFVLLFLQDPHPRVRYAACNAVGQMATDFAPGFQKKFHEKVIAALLQTMEDQGNQRVQAHAAAALINFTEDCPKSLLIPYLDNLVKHLHSIMVLKLQELIQKGTKLVLEQVVTSIASVADTAEEKFVPYYDLFMPSLKHIVENAVQKELRLLRGKTIECISLIGLAVGKEKFMQDASDVMQLLLKTQTDFNDMEDDDPQISYMISAWARMCKILGKEFQQYLPVVMGPLMKTASIKPEVALLDTQDMENMSDDDGWEFVNLGDQQSFGIKTAGLEEKSTACQMLVCYAKELKEGFVEYTEQVVKLMVPLLKFYFHDGVRVAAAESMPLLLECARVRGPEYLTQMWHFMCDALIKAIGTEPDSDVLSEIMHSFAKCIEVMGDGCLNNEHFEELGGILKAKLEEHFKNQELRQVKRQDEDYDEQVEESLQDEDDNDVYILTKVSDILHSIFSSYKEKVLPWFEQLLPLIVNLICPHRPWPDRQWGLCIFDDVIEHCSPASFKYAEYFLRPMLQYVCDNSPEVRQAAAYGLGVMAQYGGDNYRPFCTEALPLLVRVIQSADSKTKENVNATENCISAVGKIMKFKPDCVNVEEVLPHWLSWLPLHEDKEEAVQTFNYLCDLIESNHPIVLGPNNTNLPKIFSIIAEGEMHEAIKHEDPCAKRLANVVRQVQTSGGLWTECIAQLSPEQQAAIQELLNSA

Assays:
[1] = molecular target: V5-tagged HCV NS5A (strain H77, residues 1973-2416) (Hepatitis C virus, strain H77) (UniProt P27958); test: co-IP; anti-V5 immunoprecipitation from HEK293T cells transfected with V5-tagged HCV proteins for 48 hrs; western blot for endogenous Nups and Kaps; some samples treated with Kap β3/IPO5-NLS peptides or control penetratin peptides, or transfected with cNLS-GFP, 12 hrs after transfection
[2] = molecular target: V5-tagged HCV NS4A (strain H77, residues 1638-1711) (Hepatitis C virus, strain H77) (UniProt P27958); test: as above

Molecule	binding [1]	binding [2]
Nup98 (from UniProt P52948-5 1-863)	no binding	no binding
Nup358 (from UniProt P49792 1-3224)	no binding	no binding
Nup62 (from UniProt P37198 1-522)	no binding	no binding
Nup153 (from UniProt P49790-1 1-1475)	binds	no binding
Nup214 (from UniProt P35658-1 1-2090)	no binding	no binding
B1	binds	no binding
B2	binds	no binding
B3	binds	no binding

Source: paper PMC3814334
